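A five-concentration, 48-hour dose response in 96-well plates underlies each endpoint, interpolated linearly between surrounding concentrations. Here, GI50 denotes the concentration required for 50% inhibition of growth.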 Calls of active or inactive are those of the source. Rule as the data show it: active = GI50 up to about 1.1 µM and inactive = higher. Numbered stars: 1 amine (or outer) side, 2 acyl side, 3 side chain; on linkers, the order of the positions; unused ones are H or OH. Bridge positions count the residues as written; N and C are the ends. Square brackets hold non-standard residues; d marks the D form. Peptide text beside a SMILES is read from it. ξ: configuration not given here. X32 = CC[C@H](C)[C@@H](N[*:1])[C@@H](O)CC(=O)O[C@H](C(=O)[C@H](C)C(=O)[*:2])C(C)C; X54 = COc1c(N[*:1])cccc1C(=O)O[C@H](C(=O)[C@H](C)C(=O)[*:2])C(C)C; X53 = CC(C)C[C@H](C(=O)[*:2])C(C)C(=O)C1CCCN1[*:1]; 2Nal = N[CH](Cc1ccc2ccccc2c1)C(=O)O; NMeY = CN[C@@H](Cc1ccc(O)cc1)C(=O)O; dNMeL = CN[C@H](CC(C)C)C(=O)O; ξΔPro = O=C(O)C1C=CCN1; Lac = C[C@H](O)C(=O)O
Tested on: NCI-H322M
Test: growth of human tumour cells (NCI), 48 h

Row | SMILES | GI50
1 | CC(C)C(NC(=O)C(CCCCN)NC(=O)C(Cc1c[nH]c2ccccc12)NC(=O)C(Cc1ccc(O)cc1)NC(=O)C(CS)NC(=O)C(N)Cc1ccc2ccccc2c1)C(=O)NC(CS)C(=O)NC(C(N)=O)C(C)O (centres undefined) (H-[2Nal]CYWKVCT-NH2; configuration not given here) | inactive: > 12.5 µM
2 | COc1ccc(C[C@H]2C(=O)O[C@H](C)[C@H](NC(=O)[C@@H](CC(C)C)C(C)C(=O)C3CCCN3C(=O)[C@H](C)O)C(=O)Nc3cccc(c3OC)C(=O)O[C@@H](C(C)C)C(=O)[C@H](C)C(=O)N[C@@H](CC(C)C)C(=O)N3CCC[C@H]3C(=O)N2C)cc1 (some centres undefined) (H-[Lac][X53]T[X54]LP[NMeY](Me); ester 3-C) | inactive: > 12.5 µM
3 | CC[C@H](C)[C@H]1NC(=O)[C@@H](NC(=O)[C@@H](CC(C)C)N(C)C(=O)C2C=CCN2)[C@@H](C)OC(=O)[C@H](Cc2ccc(OC)cc2)N(C)C(=O)[C@@H]2CCCN2C(=O)[C@H](CC(C)C)NC(=O)[C@@H](C)C(=O)[C@H](C(C)C)OC(=O)C[C@@H]1O (some centres undefined) (H-[ξΔPro][dNMeL]T[X32]LP[NMeY](Me); ester 3-C) | active: < 0.005 µM
4 | CC(C)C[C@H](NC(=O)[C@H](CC(C)C)NC(=O)[C@@H](Cc1c[nH]c2ccccc12)NC(=O)[C@H](Cc1ccccc1)NC(=O)[C@@H](Cc1c[nH]c2ccccc12)NC(=O)[C@H](CCC(N)=O)NC(=O)[C@H](CCC(N)=O)NC(=O)[C@H]1CCCN1C(=O)[C@@H](N)CCCCN)C(N)=O (HELM PEPTIDE1{K.[dP].Q.Q.[dW].F.[dW].L.L.[am]}$$$$V2.0) | inactive: > 100 µM
5 | CSCC[C@H](NC(=O)[C@H](CC(C)C)NC(=O)[C@H](Cc1c[nH]cn1)NC(=O)CNC(=O)C1N(C(=O)[C@@H](C)NC(=O)[C@H](Cc2c[nH]c3ccccc23)NC(=O)[C@H](CCC(N)=O)NC(=O)[C@@H](N)CC(N)=O)CSC1(C)C)C(N)=O (some centres undefined) (HELM PEPTIDE1{N.Q.W.[dA].[CC1(C)SCN([*:1])C1C(=O)[*:2]].G.H.L.M.[am]}$$$$V2.0) | inactive: > 25 µM
6 | N=C(N)NCCC[C@H]1NC(=O)[C@@H](CCC(=O)O)NC(=O)[C@@H](CC(=O)O)NC(=O)[C@@H](CCC(=O)O)NC(=O)[C@H](Cc2c[nH]c3ccccc23)NC1=O (HELM PEPTIDE1{W.[dE].[dD].[dE].[dR]}$PEPTIDE1,PEPTIDE1,1:R1-5:R2$$$V2.0) | inactive: > 7.5 µM
7 | CC(C)[C@@H](C(=O)N1CCC[C@H]1C(=O)OCc1ccccc1)N(C)C(=O)[C@H](C(C)C)N(C)C(=O)[C@H](Cc1ccccc1)N(C)C(=O)[C@H](NC(=O)OC(C)(C)C)C(C)C (HELM PEPTIDE1{[CC(C)(C)OC(=O)[*:2]].[dV].[meF].[meV].[meV].P.[c1ccc(CO[*:1])cc1]}$$$$V2.0) | inactive: > 50 µM
8 | CC(C)[C@@H]1OC(=O)[C@@H](C)NC(=O)[C@@H]2CCCN2C1=O (HELM PEPTIDE1{[CC(C)[C@H](O[*:1])C(=O)[*:2]].P.[dA]}$PEPTIDE1,PEPTIDE1,1:R1-3:R2$$$V2.0) | inactive: > 100 µM
9 | C=CCC1OC(=O)CCNC(=O)[C@H](C)N(C)C(=O)[C@H](C(C)C)N(C)C(=O)[C@H](C(C)CC)NC(=O)[C@@H]2CCCN2C1=O (some centres undefined) (HELM PEPTIDE1{[CCC(C)[C@H](N[*:1])C(=O)[*:2]].[meV].[meA].[bAla].[C=CCC(O[*:1])C(=O)[*:2]].P}$PEPTIDE1,PEPTIDE1,1:R1-6:R2$$$V2.0) | inactive: > 22.9 µM
10 | CCCCCC(=O)N[C@H](C(=O)N[C@H](C(=O)N(C)[C@@H](CC(C)C)C(=O)N1CCC[C@H]1C(=O)N1CCC[C@H]1C(=O)O[C@H](C(=O)N1C(=O)C=C(OC)[C@@H]1Cc1ccccc1)C(C)C)C(C)C)C(C)C (HELM PEPTIDE1{[CCCCCC(=O)[*:2]].V.V.[meL].P.P.[COC1=CC(=O)N(C(=O)[C@@H](O[*:1])C(C)C)[C@H]1Cc1ccccc1]}$$$$V2.0) | inactive: 57 µM
11 | NC1(C(=O)NC2(C(=O)O)CCCC2)CCCC1 (HELM PEPTIDE1{[NC1(C(=O)[*:2])CCCC1].[O=C(O)C1(N[*:1])CCCC1]}$$$$V2.0) | inactive: > 100 µM
12 | COC1=CC(=O)N(C(=O)[C@@H](OC(=O)[C@@H]2CCCN2C(=O)[C@@H]2CCCN2C(=O)[C@H](CC(C)C)N(C)C(=O)[C@@H](NC(=O)[C@@H](NC(=O)OCc2ccccc2)C(C)C)C(C)C)C(C)C)[C@H]1Cc1ccccc1 (HELM PEPTIDE1{[O=C(OCc1ccccc1)[*:2]].V.V.[meL].P.P.[COC1=CC(=O)N(C(=O)[C@@H](O[*:1])C(C)C)[C@H]1Cc1ccccc1]}$$$$V2.0) | inactive: > 100 µM
13 | CC(C)(NC(=O)OCc1ccccc1)C(=O)NC(Cc1ccccc1)C(=O)O (centres undefined) (HELM PEPTIDE1{[O=C(OCc1ccccc1)[*:2]].[Aib].[O=C(O)C(Cc1ccccc1)N[*:1]]}$$$$V2.0) | inactive: > 100 µM
14 | NCCCCC(NC(=O)OCc1ccccc1)C(=O)NCC(N)=O (centres undefined) (HELM PEPTIDE1{[O=C(OCc1ccccc1)[*:2]].[NCCCCC(N[*:1])C(=O)[*:2]].G.[am]}$$$$V2.0) | inactive: > 100 µM
